# Laboratory results as given in the supplement of paper PMC8728848.
# Some of the results follow.
# B1: OGAN (protein)
# chain: MVQKESQATLEERESELSSNPAASAGASLEPPAAPAPGEDNPAGAGGAAVAGAAGGARRFLCGVVEGFYGRPWVMEQRKELFRRLQKWELNTYLYAPKDDYKHRMFWREMYSVEEAEQLMTLISAAREYEIEFIYAISPGLDITFSNPKEVSTLKRKLDQVSQFGCRSFALLFNDIDHNMCAADKEVFSSFAHAQVSITNEIYQYLGEPETFLFCPTEYCGTFCYPNVSQSPYLRTVGEKLLPGIEVLWTGPKVVSKEIPVESIEEVSKIIKRAPVIWDNIHANDYDQKRLFLGPYKGRSTELIPRLKGVLTNPNCEFEANYVAIHTLATWYKSNMNGVRKDVVMTDSEDSTVSIQIKLENEGSDEDIETDVLYSPQMALKLALTEWLQEFGVPHQY
# Legend:
# Assay in all cases: glycan array binding signal (z-score within array); higher = stronger binding
# Settings in all cases: glycan notation: IUPAC condensed, linker removed
# Glc(b1-6)Glc = biological target: Glc(b1-6)Glc
# Outline: (§1)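 Glycan array data came from 3228 arrays in the Consortium for Functional Glycomics database, and only arrays with an available protein sequence were kept. Glycan names were put into IUPAC-condensed notation, and columns mapping to the same glycan were averaged. The binding signal is a within-array Z-score, averaged across arrays of one protein sequence run at different concentrations or buffers and across linkers. A negative Z-score can be read as non-binding.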
# GlcA(b1-3)Gal = biological target: GlcA(b1-3)Gal
# Outline: as §1
# GlcA(b1-3)GlcNAc = biological target: GlcA(b1-3)GlcNAc
# Outline: as §1
# GlcA(b1-6)Gal = biological target: GlcA(b1-6)Gal
# Outline: as §1
# [1] = biological target: GlcA3S(b1-3)Gal(b1-4)GlcNAc(b1-2)Man
# Outline: as §1
# [2] = biological target: GlcA3S(b1-3)Gal(b1-4)GlcNAc(b1-3)Gal(b1-4)Glc
# Outline: as §1
# [3] = biological target: GlcNAc(a1-3)Gal(b1-4)GlcNAc
# Outline: as §1
# [4] = biological target: GlcNAc(a1-4)Gal(b1-3)GlcNAc
# Outline: as §1
# [5] = biological target: GlcNAc(a1-4)Gal(b1-4)GalNAc
# Outline: as §1
# [6] = biological target: GlcNAc(a1-4)Gal(b1-4)GlcNAc
# Outline: as §1
# [7] = biological target: GlcNAc(a1-4)Gal(b1-4)GlcNAc(b1-3)Gal(b1-4)Glc
# Outline: as §1
# [8] = biological target: GlcNAc(a1-4)Gal(b1-4)GlcNAc(b1-3)Gal(b1-4)GlcNAc
# Outline: as §1
# [9] = biological target: GlcNAc(a1-4)Gal(b1-4)GlcNAc(b1-3)Gal(b1-4)GlcNAc(b1-3)Gal(b1-4)GlcNAc
# Outline: as §1
# [10] = biological target: GlcNAc(a1-4)Gal(b1-4)GlcNAc(b1-3)Gal(b1-4)[Fuc(a1-3)]GlcNAc(b1-3)Gal(b1-4)[Fuc(a1-3)]GlcNAc
# Outline: as §1
# [11] = biological target: GlcNAc(a1-6)Gal(b1-4)GlcNAc
# Outline: as §1
# [12] = biological target: GlcNAc(b1-2)Gal(b1-3)GalNAc
# Outline: as §1
# [13] = biological target: GlcNAc(b1-2)Man(a1-3)[GlcNAc(b1-2)Man(a1-6)]Man(b1-4)GlcNAc(b1-4)GlcNAc
# Outline: as §1
# [14] = biological target: GlcNAc(b1-2)Man(a1-3)[GlcNAc(b1-2)Man(a1-6)]Man(b1-4)GlcNAc(b1-4)[Fuc(a1-6)]GlcNAc
# Outline: as §1
# [15] = biological target: GlcNAc(b1-2)Man(a1-3)[GlcNAc(b1-4)][GlcNAc(b1-2)Man(a1-6)]Man(b1-4)GlcNAc(b1-4)GlcNAc
# Outline: as §1
# [16] = biological target: GlcNAc(b1-2)Man(a1-3)[GlcNAc(b1-4)][GlcNAc(b1-2)Man(a1-6)]Man(b1-4)GlcNAc(b1-4)[Fuc(a1-6)]GlcNAc
# Outline: as §1
# [17] = biological target: GlcNAc(b1-2)[GlcNAc(b1-4)]Man(a1-3)[GlcNAc(b1-2)Man(a1-6)]Man(b1-4)GlcNAc(b1-4)GlcNAc
# Outline: as §1
# [18] = biological target: GlcNAc(b1-2)[GlcNAc(b1-4)]Man(a1-3)[GlcNAc(b1-4)][GlcNAc(b1-2)Man(a1-6)]Man(b1-4)GlcNAc(b1-4)GlcNAc
# Outline: as §1
binder,measurement,setting,value
B1,glycan array binding signal (z-score),Glc(b1-6)Glc,-0.093
same,glycan array binding signal (z-score),GlcA(b1-3)Gal,-0.079
same,glycan array binding signal (z-score),GlcA(b1-3)GlcNAc,-0.063
same,glycan array binding signal (z-score),GlcA(b1-6)Gal,-0.1
same,glycan array binding signal (z-score),[1],-0.022
same,glycan array binding signal (z-score),[2],-0.105
same,glycan array binding signal (z-score),[3],-0.068
same,glycan array binding signal (z-score),[4],-0.075
same,glycan array binding signal (z-score),[5],-0.053
same,glycan array binding signal (z-score),[6],-0.069
same,glycan array binding signal (z-score),[7],-0.079
same,glycan array binding signal (z-score),[8],-0.033
same,glycan array binding signal (z-score),[9],-0.058
same,glycan array binding signal (z-score),[10],-0.057
same,glycan array binding signal (z-score),[11],-0.092
same,glycan array binding signal (z-score),[12],-0.088
same,glycan array binding signal (z-score),[13],-0.037
same,glycan array binding signal (z-score),[14],-0.046
same,glycan array binding signal (z-score),[15],-0.056
same,glycan array binding signal (z-score),[16],-0.074
same,glycan array binding signal (z-score),[17],-0.013
same,glycan array binding signal (z-score),[18],-0.08
